Measured values as given in the supplement of paper PMC3334620.
Whole data set: some 33,000 sequences, median “E-score (-0.5 to 0.5)” near -0.054, cut for the highest 2% near 0.39. Some of the results follow.

The sequences below were run against Ylr278c (UniProt Q05854) (assay: PBM E-score (8-mer binding enrichment) (E-score (-0.5 to 0.5)); higher = stronger / more preferred TF binding; most listed sequences are background and not binding sites). Conditions: protein concentration: 200 nM; construct: GST-DNA-binding domain.
Procedure, shortened: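 E-scores (a modified Wilcoxon-Mann-Whitney statistic) were assigned by the Universal PBM Analysis Suite to every ungapped eight-base word pooled with its reverse complement. The input came from universal all-10-mer Agilent arrays made double-stranded by primer extension and probed with GST-tagged yeast transcription factors at about 100-200 nM. Fluorescent anti-GST detected bound protein, and masliner normalised the scans.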

Row | Sequence | PBM E-score
1 | CGCCTTCC | 0.161
2 | CTCGGGTC | 0.115
3 | AGGAGGCC | -0.164
4 | GAATATAA | 0.0665
5 | CGGTAATA | 0.242
6 | ATAGCTTC | -0.148
7 | GATACTAC | 0.096
8 | TTACGAAA | -0.0608
9 | AACTATTG | -0.136
10 | AAGCCATT | -0.102
11 | AGTAACCC | -0.0193
12 | CCCAAAGC | -0.122
13 | CCTCTCCG | 0.333
14 | AGTGACAA | -0.18
15 | AGTAGGCA | -0.0759
16 | ACGACTCG | -0.0499
17 | TCACGACA | -0.312
18 | AGATGAGG | -0.133
19 | AGGAGTGC | -0.139
20 | GAAACCTC | 0.0208
21 | CAGGTAAC | -0.178
22 | CGTATCTA | -0.0584
23 | ACAGAAAC | -0.122
24 | CCCTCAAC | -0.122
25 | CGATATCG | 0.177

Row | Sequence | PBM E-score
26 | ATCTGACA | -0.198
27 | AGCTCTCG | 0.0464
28 | CCATGTAG | -0.049
29 | AATGCCCT | -0.0493
30 | AAGAAAGA | -0.0469
31 | CTAGAAAC | -0.285
32 | GGTGCCGA | 0.278
33 | ACGGTCGG | 0.255
34 | TGATCGCA | -0.246
35 | GATCGGGA | 0.227
36 | CTAAATAG | -0.277
37 | AGTCAATG | -0.298
38 | AGGGGAAG | -0.399
39 | CCTGTGTC | -0.107
40 | CGTAGTAC | -0.119
41 | CCGCTCAA | 0.176
42 | GCCTCCGA | 0.398
43 | ATCAGCGC | 0.197
44 | AGACACTG | -0.321
45 | CTGCATCA | -0.299
46 | AAAGGGGT | -0.255
47 | CCTACTTC | -0.0956
48 | ATATACAC | -0.0874
49 | AACAACGG | 0.137
50 | CAAGACTC | -0.0497

Row | Sequence | PBM E-score
51 | CCGGTCAA | 0.351
52 | CGGCACCC | 0.102
53 | CATCGCGA | 0.0541
54 | CGGTCAAA | 0.164
55 | GGAGGAAC | 0.217
56 | ATAAGGCG | -0.0237
57 | AGCTCAAA | 0.053
58 | CGACGTGA | -0.00736
59 | ATCTCAAG | -0.109
60 | AGGCTTGA | -0.221
61 | CAGGTGGC | -0.264
62 | ATAGTTGC | 0.00742
63 | ACTTGAAT | -0.0552
64 | ACCAGCCG | 0.167
65 | CGTAGTCA | -0.235
66 | TACAGAAA | -0.0928
67 | CGACCTCC | 0.28
68 | CCAGTTCA | 0.057
69 | GAGGATAC | -0.125
70 | CCTCAGTA | -0.165
71 | AATCATTA | -0.208
72 | GACAACTC | 0.127
73 | ACCCCCTC | -0.222
74 | CCATGGTC | -0.272
75 | ATGCAGAG | -0.192

Row | Sequence | PBM E-score
76 | ATGGCGAA | 0.189
77 | GGCTGAGA | -0.00471
78 | AAAAACAA | 0.0827
79 | CGTCCTCA | -0.138
80 | GTACCGAA | -0.0221
81 | CGCACCAA | 0.0882
82 | ACGAATTC | -0.1
83 | GGGATCGA | -0.0342
84 | ACCGTACC | -0.0372
85 | CAGCCCCC | -0.213
86 | CTGGGAGA | -0.0411
87 | AGCTGGGG | -0.0831
88 | CCCCCGGC | 0.254
89 | ATATGGAG | 0.0345
90 | GATCCCGA | 0.271
91 | GTCCATCA | 0.0432
92 | GTAAGGCA | -0.198
93 | AGGTCCCG | 0.173
94 | CACGGCTG | -0.0578
95 | ACAATAAA | -0.0377
96 | CCCGTTAA | 0.0382
97 | GCTCGAGA | -0.231
98 | ACGACGCT | -0.155
99 | ATAGCTAC | -0.136
100 | AACATTGG | -0.221

Row | Sequence | PBM E-score
101 | AGACATCA | -0.0738
102 | CAGGGTTA | -0.339
103 | ACTGTCAC | -0.145
104 | AGGTGTTA | -0.317
105 | CGACGTCC | 0.219
106 | GCTTATGA | 0.0147
107 | GTTGTACA | 0.149
108 | GGCCATGA | 0.0397
109 | GCCGTTGA | 0.0232
110 | CGGGGTCC | 0.328
111 | GCTCGATA | -0.0473
112 | AGATCTCA | -0.182
113 | GAGAACGA | 0.0372
114 | AAGGGTCG | -0.0389
115 | GTAGTGAC | 0.0783
116 | CGCATCCA | -0.0772
117 | AGGCATTA | -0.134
118 | CATCGACG | -0.111
119 | GGCTGTAA | -0.267
120 | TCTCTGCA | -0.142
121 | CCACATCG | 0.0693
122 | CGGGGATA | 0.349
123 | AAGTTGTA | -0.13
124 | AAACAACA | -0.119
125 | CGATTATC | 0.12

Row | Sequence | PBM E-score
126 | ACGCCACC | -0.139
127 | ATAATTTG | 0.102
128 | TCTGAAGA | -0.148
129 | CGCTGAGC | -0.147
130 | CCTACGAC | -0.163
131 | TCGTAAAA | -0.0488
132 | ACACGGCC | 0.179
133 | CCAACCAA | -0.0835
134 | CAGCCCTC | -0.127
135 | AGGCGGTG | -0.0602
136 | ACTAGCCG | 0.0848
137 | CCTCTGCA | -0.122
138 | CTATGGCA | -0.344
139 | TCATGCCA | -0.257
140 | CTCTCCAA | 0.0897
141 | ATGGCACA | -0.0452
142 | CCGTTGAG | 0.0643
143 | TCTTTTAA | -0.119
144 | CCGCGGGA | 0.393
145 | ACCGTAAG | 0.0611
146 | AAGTCTCG | -0.0679
147 | CAAAAGTA | -0.125
148 | ACTAACTA | -0.106
149 | CCGGAGGA | 0.465
150 | ATGGGCTA | -0.136

Row | Sequence | PBM E-score
151 | AGTTGGGC | -0.0857
152 | GGTTTTTA | -0.0655
153 | GACCGAAA | 0.225
154 | GATGGCAC | 0.0573
155 | AGTCTGAC | -0.273
156 | AAAACTGA | -0.0811
157 | GGTGGGTA | 0.0728
158 | CGCGACCA | 0.121
159 | CACGATTA | -0.0584
160 | ATCCTTCG | 0.167
161 | ACTCGAAT | -0.189
162 | CGTAGCGA | 0.0415
163 | AGATTATA | -0.121
164 | AAACACGA | -0.061
165 | ATTCTCCG | 0.474
166 | CACACGAG | -0.236
167 | ATTTTGTA | 0.119
168 | TCAGCGAA | -0.0965
169 | CAGCTTCA | -0.141
170 | ATTGCGGA | 0.33
171 | CCGCAAGG | 0.123
172 | CTAACGCA | 0.0237
